The record followed here is PMC10726135.

The list shows a part of the results. At the low end of the ranking the order means little. Measured with an extract: partners may take part in the binding.

The assay addresses T1, HNF4alpha2 (COS-7 nuclear extract) (UniProt P41235).
T1 sequence: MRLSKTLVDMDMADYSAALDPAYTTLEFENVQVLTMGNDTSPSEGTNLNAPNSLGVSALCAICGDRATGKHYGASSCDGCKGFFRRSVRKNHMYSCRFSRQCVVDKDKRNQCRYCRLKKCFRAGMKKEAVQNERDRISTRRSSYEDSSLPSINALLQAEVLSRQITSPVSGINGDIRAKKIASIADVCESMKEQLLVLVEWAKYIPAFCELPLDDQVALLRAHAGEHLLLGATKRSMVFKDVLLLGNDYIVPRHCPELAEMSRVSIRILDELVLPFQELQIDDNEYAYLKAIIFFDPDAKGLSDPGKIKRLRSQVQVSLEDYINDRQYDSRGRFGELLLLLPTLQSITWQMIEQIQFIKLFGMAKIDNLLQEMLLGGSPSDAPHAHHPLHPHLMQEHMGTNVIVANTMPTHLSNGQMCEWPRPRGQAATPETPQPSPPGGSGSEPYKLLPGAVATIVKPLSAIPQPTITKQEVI
The assay is described as follows: protein-binding microarray. Particulars: COS-7 nuclear extract on double-stranded Agilent 4x180k PBM; binding buffer, salt, pH and temperature not given; high values mean tight binding; double strand, one strand shown; sequences stand for … in …GCCTAGGGAGATTAGAGTATCGGTCGA
On to CCTTCAGTTCTTATCTCGTACTTCTGTTGT, for which the binding signal (log2 normalized intensity) was found to be 1.95.

Regarding GAAAGGATCTCACCCAAACCATCCCAGGCA, the binding signal (log2 normalized intensity) was determined as 3.26.

Turning to GAGTCTCCTGGGTAATCACCAAACTTCACA, the binding signal (log2 normalized intensity) was -1.06.

For the sequence ACTGTAAGATCAAGATTAAGAAGAGCAGCT, the binding signal (log2 normalized intensity) was -1.17.

Turning to CCGACCCGCCCGACTACAACAGCCTTGCAG, the binding signal (log2 normalized intensity) was -0.785.

Consider TTGAAGAAATGGTGGACTTTGTAGCTCAAA, for which the binding signal (log2 normalized intensity) stood at 3.83.

For GACTTCCATTGTGTTGCAGATGATCAAGAG, the binding signal (log2 normalized intensity) was determined as 1.57.

ATCTTCCTCCCCCCTTGGCTACATGTTTGT: the binding signal (log2 normalized intensity) worked out at 3.7.

For the sequence GTGCTGACCTCCTGTCTCATCCTGTGACCA, the binding signal (log2 normalized intensity) worked out at 1.42.

Take CTCAACTCCCTCTGAAGGGAGGGCCAAGCC: the binding signal (log2 normalized intensity) was -0.0612.

With TGTACTAATGATTTGTAAATCTCTAGTCCC, the binding signal (log2 normalized intensity) turned out to be 0.557.

Regarding ATGTCTCAAGATATCTATATGTTTACATAT, the binding signal (log2 normalized intensity) is 1.87.

Take CCCAGATGCACGTGCTCCAGGAGGGGAGGA: the binding signal (log2 normalized intensity) was -0.997.

In the case of GGACAGTGGTCTTTATGACTTGGGTGCACC, the binding signal (log2 normalized intensity) turned out to be 2.02.

With ACAGTAGGCTCTAGATGTCTCAGTAGATAA, the binding signal (log2 normalized intensity) was -1.14.

Regarding AAGACTGAGCAGCTGGAGGGGGACTGGAAG, the binding signal (log2 normalized intensity) is -1.08.

Regarding ATTTCATAGACTGTCCCTCAGTGTGGGACT, the binding signal (log2 normalized intensity) worked out at 0.649.

For the sequence CAGAGGAGATCAGAGGAGGCACTTGTCTCA, the binding signal (log2 normalized intensity) is -1.11.

For the sequence TGGTTTACATTCTTAGAAGATAAAGTGTCT, the binding signal (log2 normalized intensity) turned out to be 0.541.

With TGTGCTGAAAAGACTTCACAATCAATTCCA, the binding signal (log2 normalized intensity) was -1.22.

With GCTGGTGGGTGGGGGAAGTGTGGTCAAGGG, the binding signal (log2 normalized intensity) is 0.986.

As for CTCAAGTGACCTTTGACCTCTGGCCTTTGC, the binding signal (log2 normalized intensity) stood at 10.2.

For the sequence CAGAAAAATGGAGCAGCTCTGTATTGAGAT, the binding signal (log2 normalized intensity) was -0.99.

As for TACATTGGACAACTGTACTTTGGACTGGGG, the binding signal (log2 normalized intensity) was found to be 5.99.

As for ATTTAAGCTTGAGACAAAGGAAACTGATTG, the binding signal (log2 normalized intensity) stood at 0.161.

As to AAGGAAGGTGCTTATCAGAGCAAGAGATGG, the binding signal (log2 normalized intensity) was -0.922.

With GTCCTTGATAAGCAAGATGACTTTGGTCTA, the binding signal (log2 normalized intensity) amounted to 1.78.

With ACAGCAGTGGACTTTGACCTTGGCACTGAA, the binding signal (log2 normalized intensity) came to 9.07.

On to GCATCTCATTACTGACAGAGATCAAAAACC, for which the binding signal (log2 normalized intensity) came to 0.00616.

As to CATCTACCAGCGTAATTCTGGCTCTTTGAG, the binding signal (log2 normalized intensity) is 0.87.

GCCTAGGAAAACCAGAGACCTTTGTTCACT: the binding signal (log2 normalized intensity) was found to be 2.89.

For GCGTGGTGGCCTGTGCCTGTAGTCCCAGCG, the binding signal (log2 normalized intensity) is -1.12.

For GATCCCTTATTTGCATGAAGCACAAAGGTT, the binding signal (log2 normalized intensity) is 2.4.

CCTGTACACGGTTCTTGACCTGTGATAAGA: the binding signal (log2 normalized intensity) is 2.41.

Take ATGATTTCAGCTTATAAATCTTCAACTGGA: the binding signal (log2 normalized intensity) came to 0.456.

For GATCAGAAATGTTTGGAATTCCACAGCAGA, the binding signal (log2 normalized intensity) is -0.681.

For CAGTGGGCCCAGAGCACAACCTTTGGCCGT, the binding signal (log2 normalized intensity) came to 4.45.

As to CCCTCCATGTAACCCCTTTTCAATTCCTTA, the binding signal (log2 normalized intensity) was found to be 1.41.

With CCTGTACCTAGAATTCTTTCACTCCCTTTT, the binding signal (log2 normalized intensity) was 1.12.

As to GTCCTTCCAAAGTCCTTCTAAAGCAAATTT, the binding signal (log2 normalized intensity) came to 1.45.

Regarding GGAGGAAATCTCTCTGGTCAAAGGGTAAAG, the binding signal (log2 normalized intensity) was 2.34.

As to CAAGAAGTTCCAAAGGCCAGTGTGGCTAAC, the binding signal (log2 normalized intensity) came to 0.412.

Regarding TGTTATTTGCTGAGGTGGGGGAGGTAGGTA, the binding signal (log2 normalized intensity) is 0.0481.

Regarding TGCGACTGAGCCCTAAGAAATCTCCAAGTC, the binding signal (log2 normalized intensity) was -1.13.

As to ACAGGGAAAGTATGGGTCAGCCCTGCCATC, the binding signal (log2 normalized intensity) was -0.817.

On to CTAGGATCACGCCATGAGTTGGGGACAAAG, for which the binding signal (log2 normalized intensity) was -0.695.

For AGGATTCTTTATCTTAGCTTCAGCTTTGCT, the binding signal (log2 normalized intensity) is -1.14.

For the sequence TGTCTGGCTAAGACCTTTAGTTAGCCTTTC, the binding signal (log2 normalized intensity) came to 1.4.

For the sequence AGAACGTTCCAAACCTACACAGACCCTCTT, the binding signal (log2 normalized intensity) was -1.06.

As to AAGCACATCCTGTTCTAGCTCGGGGGCCCT, the binding signal (log2 normalized intensity) is -1.17.

As for CCCGGACCAGGCCGGGTCACGTGGGTCCAG, the binding signal (log2 normalized intensity) was 3.05.

In the case of TGGAACAAGGTCCCATGCACTGGCCTGGAT, the binding signal (log2 normalized intensity) was -1.12.

Consider TTAGAGAAAGGGTCAAAGGTTAAGCCATTG, for which the binding signal (log2 normalized intensity) stood at 5.92.

On to TGCTTCTTGGCCTCTTTGTTTACACTGTGA, for which the binding signal (log2 normalized intensity) amounted to 1.53.

Regarding GCCCTTCCCTAACCCTTCAAGGGCCACTCA, the binding signal (log2 normalized intensity) is -0.957.

With GCAAGACGCCGTCTCAAAAAAAAAAAAAAG, the binding signal (log2 normalized intensity) was -1.08.

Regarding CAATATTTGTTAAGTACCCACTATAGATTG, the binding signal (log2 normalized intensity) is 0.719.

In the case of GCTTCCCTTTCTACTGCCAGCCAGGGCCAC, the binding signal (log2 normalized intensity) is -0.865.

On to GGCCATTCCAGTTTTGGAGAGGGGAACGAT, for which the binding signal (log2 normalized intensity) was -1.21.

As for TGTGATAAGGTGTTGAAAAGAGCATAAGGT, the binding signal (log2 normalized intensity) was 0.969.

Regarding AGAAAAAGAAAAGCCTTGTGGCAGTGAGAA, the binding signal (log2 normalized intensity) was -1.18.

For the sequence TCCATATTTGGAAGTAAGAACCCCACTATT, the binding signal (log2 normalized intensity) amounted to 3.03.

AACCACCTATTCTGAAGATTGCTAGCTGAG: the binding signal (log2 normalized intensity) was -1.2.

With CCAAATTCTCCCAGGCCATACAGATACCCA, the binding signal (log2 normalized intensity) was -0.972.

For the sequence CCCTTCCTCTGCAGCCGCCCTTTTGCCTCC, the binding signal (log2 normalized intensity) turned out to be 2.7.

As to GAGTTGTCATCATAAAAGTTCTCATGCTAA, the binding signal (log2 normalized intensity) was -0.896.

Regarding CAGCCTGATACCAGATCCTTCAGCCAAGGA, the binding signal (log2 normalized intensity) is -1.24.

Regarding AACAAAACACGGACTTTGAAGCTCCAAGAT, the binding signal (log2 normalized intensity) came out at 0.0164.

Turning to AGGCTGTTCTGATGCCATTCCCTGCAGGTG, the binding signal (log2 normalized intensity) was -1.05.

On to ATTGTTAGCCTAAACTATCTGGTGCGGTCC, for which the binding signal (log2 normalized intensity) is -0.178.

As to CTAGAGGCCTTCTCTGTGAACACACCGTAG, the binding signal (log2 normalized intensity) is -1.13.

Regarding ATAGGTTACCTTGACCAAAGTACAGTAATT, the binding signal (log2 normalized intensity) is 2.67.
